Data published in patent publication US20070072177A1 (CRUCELL HOLLAND B V, published 2007).

Molecular target: T1, glycoprotein of rabies virus strain CVS-11 (rabies virus strain CVS-11, UniProt O92284 20-524)
T1 sequence: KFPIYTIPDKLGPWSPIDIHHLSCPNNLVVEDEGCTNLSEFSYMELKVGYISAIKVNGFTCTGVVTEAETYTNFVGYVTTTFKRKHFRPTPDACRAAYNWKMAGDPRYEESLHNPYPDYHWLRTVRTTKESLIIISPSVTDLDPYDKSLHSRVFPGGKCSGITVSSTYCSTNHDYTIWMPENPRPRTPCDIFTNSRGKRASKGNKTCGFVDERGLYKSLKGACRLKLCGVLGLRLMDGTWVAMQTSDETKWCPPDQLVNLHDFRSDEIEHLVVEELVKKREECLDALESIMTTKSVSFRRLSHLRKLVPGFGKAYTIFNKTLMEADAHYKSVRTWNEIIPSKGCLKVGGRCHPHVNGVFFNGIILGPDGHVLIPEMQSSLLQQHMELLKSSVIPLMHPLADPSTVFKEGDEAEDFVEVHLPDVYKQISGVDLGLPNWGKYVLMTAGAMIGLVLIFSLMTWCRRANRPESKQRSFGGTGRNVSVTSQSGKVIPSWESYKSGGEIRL
Assay: cell-based or functional assay

B1: SC04-004 (scFv)
scFv: SMAEVQLVESGGGLVQPGGSLRLSCAASGFTFSNYWMNWVRQAPGKGLEWVSAISGSGGSTYYADSVKGRFTISRDNSKNTLYLQMNSLRAEDTAVYYCAKDYLYPTTDFDYWGQGTLVTVLEGTGGSGGTGSGTGTSELTQSPSSLSASVGDRVTIT[about 80 residues not given here]FGQGTKVEIKRAAA
Potency (IU/ml): 18 IU/ml
